Data published in PubChem BioAssay AID1460 (National Center for Advancing Translational Sciences (NCATS), 2008).
Where “and” joins values, the source holds several entries; their conditions need not be identical. Equal entries are not always repeated. Out of some 270,000 compounds screened, about 5,800 (2.1%) were called active. Inconclusive results, whose numbers are uncertain, are shown with a selection of clear calls. Calls follow the shape of the dose curve; as a rule, active = well fitted inhibition curve with a large enough effect; inconclusive = small, poorly fitted or top-dose-only effect; inactive = flat fitted curve, though single readings scatter. A potency beside an inconclusive call is a rough fit, not a confirmed value.

Molecular target: Microtubule-associated protein tau (Homo sapiens) (UniProt P10636)
Assay: qHTS for Inhibitors of Tau Fibril Formation, Thioflavin T Binding; also: nearly all actives have a fitted effect of over 55% in size
Settings: recombinant tau K18 P301L (four-repeat tau fragment), heparin-induced fibrillization, ThT fluorescence; series mostly up to 57.4 µM
How it was run: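 Heparin-induced fibrillization of the P301L-mutant K18 repeat-domain fragment of human tau was followed by ThT binding in quantitative high-throughput format.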
Potency is read from the fitted curve at half-maximal effect; tags tell the direction and shape of the fitted curve.

UniProt P10636, sequence (P10636 whole entry, looked up): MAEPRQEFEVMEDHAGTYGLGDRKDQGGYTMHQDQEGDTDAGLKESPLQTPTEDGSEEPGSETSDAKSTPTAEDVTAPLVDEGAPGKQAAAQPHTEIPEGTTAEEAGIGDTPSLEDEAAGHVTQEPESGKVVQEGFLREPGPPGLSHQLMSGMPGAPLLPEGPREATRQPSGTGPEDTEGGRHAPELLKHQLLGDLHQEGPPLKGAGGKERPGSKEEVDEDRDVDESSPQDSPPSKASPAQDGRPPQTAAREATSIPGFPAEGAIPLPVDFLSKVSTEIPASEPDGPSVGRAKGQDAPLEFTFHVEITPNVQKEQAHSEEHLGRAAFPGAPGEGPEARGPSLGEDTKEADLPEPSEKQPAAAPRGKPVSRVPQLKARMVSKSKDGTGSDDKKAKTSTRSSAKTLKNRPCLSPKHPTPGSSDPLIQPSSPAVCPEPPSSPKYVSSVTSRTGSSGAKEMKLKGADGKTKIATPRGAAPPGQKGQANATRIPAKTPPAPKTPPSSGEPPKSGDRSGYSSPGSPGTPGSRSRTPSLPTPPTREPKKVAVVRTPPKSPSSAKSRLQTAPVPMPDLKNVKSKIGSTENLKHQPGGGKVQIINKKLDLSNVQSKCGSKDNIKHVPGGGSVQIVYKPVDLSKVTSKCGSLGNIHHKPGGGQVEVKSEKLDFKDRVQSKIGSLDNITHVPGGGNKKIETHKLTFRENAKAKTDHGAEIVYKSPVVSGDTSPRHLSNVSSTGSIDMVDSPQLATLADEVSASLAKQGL

Compound	Potency
COc1ccc(NC(=O)N(CCc2ccccc2)Cc2cc3c(C)cc(C)cc3[nH]c2=O)cc1	inconclusive: 20 µM [inhibitor, partial curve]
Cc1ccc(C)c(CNC(=O)c2cc3ccccn3n2)c1	inactive
CCOc1ccc(NC(=O)CSC2=NCCN2)cc1	inconclusive: 22.4 µM [inhibitor, single point]
Oc1ccc(/C=N/Nc2nc(N3CCCC3)nc(N3CCCC3)n2)cc1O	inconclusive: 14.1 µM [inhibitor, partial curve]
CSCCC(NC(=O)C1CCC(C)CC1)C(=O)NCCN1CCOCC1 (configuration not stated)	inconclusive: 2.51 µM [inhibitor, full curve]
CC(=O)c1sc2nc(SCC(=O)N3CCCCC3)[nH]c(=O)c2c1C	inconclusive: 14.1 µM [inhibitor, partial curve]
O=[N+]([O-])c1cccc(-c2ccc(/C=N/Nc3nc(N4CCCCC4)nc(N4CCCCC4)n3)o2)c1	inconclusive: 11.2 µM [inhibitor, partial curve]
CCOC(=O)c1ccc2c(c1)nc(COc1ccc(OC)cc1)n2CC	inconclusive: 2.51 µM [inhibitor, full curve]
CC1(C)CC2(CC(c3ccccc3F)c3ccc(O)c(O)c3O2)NC(=S)N1 (configuration not stated)	active: 22.4 µM
S=c1nc(-c2ccccc2Br)[nH][nH]1	inactive
CN1CCc2c(sc3nc(SCC(=O)N4CCOCC4)nc(N)c23)C1	inconclusive: 22.4 µM [inhibitor, single point]
O=C(NCc1ccccc1)c1csc2c1CCCCC2	inactive
Cc1ccc(-c2noc(CSc3nnc(Cc4cccs4)n3-c3ccccc3)n2)cc1	inconclusive: 20 µM [inhibitor, partial curve]
CCOC(=O)c1cccc2c1N[C@@H](c1ccc(F)cc1)[C@H]1CC=C[C@@H]21	inconclusive: 22.4 µM [inhibitor, partial curve, poor fit]
CCOC(=O)C1=C(c2ccccc2)NC(=S)NC1c1cccc([N+](=O)[O-])c1 (configuration not stated)	inactive
O=C(O)C1NCCc2ccccc21 (configuration not stated)	inactive
Cc1[nH]c2ccccc2c1/C=N/NC(=O)c1cccc(F)c1	inconclusive: 15.8 µM [inhibitor, partial curve, poor fit]
O=S(=O)(Nc1nc2ccccc2nc1N1CCN(c2ccccc2)CC1)c1ccc(F)cc1	inconclusive: 17.8 µM [inhibitor, partial curve]
CCOC(=O)c1cnn(CCOC(=O)c2cccs2)c1NC(=O)c1cccs1	inconclusive: 39.8 µM [inhibitor, single point]
CCC(C)[C@H](Nc1nc(-c2ccccc2)nc2c1oc1ccccc12)C(=O)O (some centres not stated)	inactive
Cc1cc(N=Cc2c(O)n(-c3cccc(Cl)c3)c(=O)c3ccccc23)no1	inconclusive: 8.91 µM [activator, full curve]
CC1=C(n2nnc([N+](=O)[O-])n2)C(c2cccnc2)C(C#N)=C(N)O1 (configuration not stated)	inconclusive: 39.8 µM [inhibitor, single point]
Cc1ccc2cccc(N=Cc3c(C)[nH]n(-c4ccccc4)c3=O)c2n1	inconclusive: 15.8 µM [inhibitor, partial curve]
CCCc1cc(C(=O)Cc2nc3ccccc3s2)c(O)cc1O	active: 25.1 µM

Compound	Potency
COc1ccc(-c2nnc(SCC(=O)N(C)Cc3ccccc3)o2)cc1OC	inactive
O=C1NC(c2ccccc2)Nc2c1sc(=S)n2-c1ccccc1 (configuration not stated)	inconclusive: 11.2 µM [inhibitor, partial curve]
CS(=O)(=O)Nc1cccc(C2=NN(C(=O)c3ccccc3Cl)C(c3ccccc3O)C2)c1 (configuration not stated)	inactive
COc1ccccc1NC(=S)NCc1cccs1	inactive
O=C(c1cc2cc(Cl)ccc2oc1=O)N1CCCC1	inactive
CNC(=O)c1c(NC(=O)c2ccc(S(=O)(=O)N3CCCCC3C)cc2)sc2c1CCC2 (configuration not stated)	inactive
CN(C)S(=O)(=O)c1cccc(NC(=S)N/N=C/c2ccc(O)c(O)c2O)c1	active: 3.16 µM
O=C(O)/C=C/C(=O)N1CCN(C(c2ccccc2)c2ccccc2)CC1	inconclusive: 11.2 µM [inhibitor, single point]
COC(=O)C1=C(C)OC(N)=C(C#N)C1c1cc2cccc(C)c2nc1Cl (configuration not stated)	inconclusive: 28.2 µM [inhibitor, single point]
COc1cc(OC)c(/C=N/NC(=O)c2ccc(NC(C)=O)cc2)cc1Br	inconclusive: 4.47 µM [inhibitor, full curve]
CCCCN(CCCNC(=O)c1c(C)oc2nc[nH]c(=O)c12)Cc1ccccc1	inactive
Clc1cccc(N/N=C/c2ccc(N3CCOCC3)cc2)c1	inconclusive: 7.94 µM [inhibitor, partial curve]
COc1ccc(-n2ncc3c(N4CCc5ccccc54)ncnc32)cc1	inconclusive: 0.316 µM [inhibitor, full curve]
Cc1nnc2n(-c3ccccc3)c(=O)c3c4c(sc3n12)CCCC4	inactive
Cc1ccc(SCC(=O)NCCCN2CCOCC2)cc1	inactive
O=S(=O)(Nc1ccn(-c2ccccc2)n1)c1ccc(Br)cc1	inconclusive: 31.6 µM [inhibitor, partial curve]
NC(=O)CC(NC(=O)c1ccc(Br)cc1)c1ccc(N2CCC(Br)CC2)c([N+](=O)[O-])c1 (configuration not stated)	inconclusive: 4.47 µM [inhibitor, full curve]
COc1ccc(N2CCN(C(=O)/C(C#N)=C/c3ccccc3)CC2)cc1	inconclusive: 28.2 µM [inhibitor, partial curve]
CC1(C)CC(=O)CC(C2(O)C(=O)N(Cc3ccccc3)c3ccccc32)O1 (configuration not stated)	inactive
CC(C)C1C(=O)NC(=S)N1S(=O)(=O)c1ccc(C(C)(C)C)cc1 (configuration not stated)	inactive
O=C(N/N=C/c1cccnc1)c1cc2c(ccc3ccccc32)o1	inconclusive: 1.26 µM [inhibitor, full curve]
CCc1cc2c(SCC(=O)Nc3cc(C)on3)ncnc2s1	inactive
CC(Cc1ccc(O)c(O)c1)C(C)Cc1ccc(O)c(O)c1 (configuration not stated)	inconclusive: 17.8 µM [inhibitor, partial curve] and inconclusive: 25.1 µM [inhibitor, partial curve]
